According to PubChem BioAssay AID1508642 (National Center for Advancing Translational Sciences (NCATS), 2021):
Among all 43,000 compounds or so, about 200 (0.47%) were called active. Another 12% or so got no clear call; they are omitted. Calls follow the shape of the dose curve; as a rule, active = well fitted cell-killing curve with a large enough effect; inconclusive = small, poorly fitted or top-dose-only effect, or effect the other way; inactive = flat fitted curve, though single readings scatter. The list shows a part of the results.

assay: Cell viability qHTS assay in S16 Pmp22-F2sN cells; conditions: S16 Pmp22-F2sN Schwann cells (luciferase reporters placed in the Pmp22 gene) viability, CellTiter-Glo, 24 h; series mostly up to 57.5 µM; activity change, negative = cytotoxicity: at the top concentration; also: nearly all actives have a fitted effect of over 65% in size
Outline: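 Rat S16 Schwann reporter line, 24 h treatment with library compounds delivered at 23 nL per well. Cell viability by CellTiter-Glo luminescence.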
% is scaled to controls: 0 for no effect and ±100 for the full control effect.

Row | SMILES | activity change, negative = cytotoxicity
1 | CC(C)(C)C1CCc2c(sc(NC(=O)Cn3nnc(-c4ccccc4F)n3)c2C#N)C1 (stereo not drawn) | inactive: 4.28%
2 | O=C(Cn1c(=O)c2cccn2c2ccccc21)Nc1cc(F)ccc1F | inactive: 3.66%
3 | CCOc1ccc(N(C(=O)Cn2nnc3ccccc32)C(C(=O)NCc2ccccc2)c2ccc(OC)cc2)cc1 (stereo not drawn) | inactive: 14.9%
4 | CCOC(=O)c1cc(-c2ccccc2)n(-c2cccc(C(=O)Nc3ccc(OC)cc3)c2)c1C | inactive: 6.63%
5 | CCc1ccc(-c2nn(CC(=O)Nc3ccccc3)c3c2cnc2ccc(F)cc23)cc1 | inactive: 5.01%
6 | Cc1ccc(CCNC(=O)Cn2nc(-c3ccc(C)cc3)ccc2=O)cc1 | inactive: 0.776%
7 | CCN(CC)CCNC(=O)c1cn(CC)c2ccc(S(=O)(=O)N3CCOCC3)cc2c1=O | inactive: 17.4%
8 | COc1ccc(OCC(=O)OCc2cc(=O)n3nc(C4CCCCC4)sc3n2)cc1 | inactive: 8.15%
9 | COc1ccc(-c2[nH]ncc2C(=O)NCc2ccccc2C)cc1 | inactive: -17.9%
10 | CC(=O)N1CCCc2cc(S(=O)(=O)N3CCC(C(=O)NCc4ccc(C)cc4)CC3)ccc21 | inactive: 2.25%
11 | COC(=O)c1ccccc1NC(=O)Cn1c(=O)n(-c2cccc(OC)c2)c(=O)c2c(C)c(C(=O)N(C)C)sc21 | inactive: -5.23%
12 | Cc1onc(-c2ccccc2Cl)c1C(=O)Oc1cc(F)cc(F)c1 | inactive: 1.36%
13 | Cc1ccc(C(=O)NCc2ccc(N(C)C)cc2)cc1NC(=O)c1nsc2ccccc12 | inactive: -5.42%
14 | CC1CCC(NC(=O)c2ccc3c(c2)N(Cc2ccccc2)C(=O)c2ccccc2S3=O)CC1 (stereo not drawn) | inactive: -12.1%
15 | COc1cc(-c2nnn(CC(=O)Nc3ccc(OC(F)(F)F)cc3)n2)cc(OC)c1OC | inactive: -13.1%
16 | CCOC(=O)c1c(C)[nH]c(CCC(=O)Nc2cc(C)ccc2OC)c1C | inactive: -10.7%
17 | Cc1cccc(C)c1NC(=O)c1oc2ccc3c(c2c1C)C(=O)CC(C)(C)O3 | inactive: 2.07%
18 | Cc1cccn2c(=O)c(C(=O)NCCCN3CCCCC3C)c(O)nc12 (stereo not drawn) | inactive: 8.04%
19 | O=C(Cn1ncc2c1-c1ccccc1OC2)N1CCN(c2ccccc2F)CC1 | inactive: 1.6%
20 | COc1ccccc1CNC(=O)C1CCCN(S(=O)(=O)c2ccc3c(c2)CCCN3C(C)=O)C1 (stereo not drawn) | inactive: -12.2%
21 | O=C(CSCc1ccccc1Cl)N1CCN(c2ccc(F)cc2)CC1 | inactive: -3.4%
22 | CN1C(C(=O)Nc2ccc(F)cc2F)=CC(c2ccco2)=NS1(=O)=O | inactive: 3.94%
23 | Cc1nnc(NCc2ccccc2)c2c1nnn2Cc1ccccc1Cl | inactive: -3.08%
24 | CCc1ccc2c(c1)c(=O)c(S(=O)(=O)c1ccc(F)cc1)cn2CC(=O)Nc1ccc(C)cc1C | inactive: 6.05%

Row | SMILES | activity change, negative = cytotoxicity
25 | Cc1ccc(CNC(=O)C2CCCN(S(=O)(=O)c3cccc4nsnc34)C2)cc1 (stereo not drawn) | inactive: -2.27%
26 | CCCn1ccc2c(OCC(=O)NCc3ccc(C)cc3)cccc2c1=O | inactive: 9.56%
27 | CCc1nn2c(=O)cc(COC(=O)c3cccc(NC(=O)c4ccccc4Cl)c3)nc2s1 | inactive: 10.6%
28 | Cc1cc2ncn(CCCCOc3ccccc3)c2cc1C | inactive: -19.4%
29 | Cc1cccc(NC(=O)c2ccc(N(Cc3ccccc3)S(C)(=O)=O)cc2)c1 | inactive: 24.7%
30 | COc1ccc(CNC(=O)c2cnc3sc(N4CCCC4)nn3c2=O)cc1OC | inactive: -1.28%
31 | Cc1ccc2c(c1)C(c1ccc(F)cc1)N(C(=O)COc1ccc(Cl)cc1Cl)CC(=O)N2 (stereo not drawn) | inactive: -28.5%
32 | COc1ccccc1N1CCN(C(=O)c2nn(-c3ccc(C)cc3)c(=O)n(C)c2=O)CC1 | inactive: 11.8%
33 | CC(=O)c1c(C)nc2nc(-c3ccccc3)nn2c1C | inactive: 14.6%
34 | COC(=O)C1=C(CS(=O)(=O)c2cc(Cl)ccc2OC)NC(=O)NC1c1ccccc1 (stereo not drawn) | inactive: 5.07%
35 | CCCCOc1ccc(C(=O)N2CCN(CCc3ccncc3)CC2)cc1 | inactive: 18.2%
36 | Cc1cc2nnc(SCC(=O)Nc3ccc(F)c(Cl)c3)n2c2ccccc12 | inactive: 10.6%
37 | COc1cc(OC)c(NC(=O)C2CCCN(c3ncnc4c3nc3n4CCCCC3)C2)cc1Cl (stereo not drawn) | inactive: 2.56%
38 | O=C(COc1ccccc1Cl)NCC1(N2CCOCC2)CCCCC1 | inactive: -15.8%
39 | CCc1ccc(OCC(=O)Nc2cc3oc4ccccc4c3cc2OC)cc1 | inactive: 4.37%
40 | CCc1ccccc1NC(=O)Cn1c(=O)n(Cc2ccc3c(c2)OCO3)c(=O)c2ccc(C(=O)NC3CCCCC3)cc21 | inactive: 11.7%
41 | Cc1ccccc1-c1nc(CS(=O)(=O)CC(=O)NCC(C)c2ccccc2)c(C)o1 (stereo not drawn) | inactive: -4.06%
42 | CCN1CCN(CCCNC(=O)c2cc3c(=O)n(C)c4ccccc4c3s2)CC1 | inactive: -9.18%
43 | O=C(NCCc1ccccc1)c1cnc2sc(N3CCCC3)nn2c1=O | inactive: 13.1%
44 | CCCc1nn2c(=O)cc(COC(=O)c3cccc(NC(=O)COc4ccccc4C)c3)nc2s1 | inactive: -3%
45 | COc1cc(OC)c(NC(=O)N2CCc3cc(OC)c(OC)cc3C2CC(=O)O)cc1Cl (stereo not drawn) | inactive: 22.9%
46 | COc1ccc(C(=O)Nc2nnc(C)s2)cc1 | inactive: 28.1%
47 | CCCCOC(=O)CSc1nnc(-c2ccc(C)cc2)o1 | inactive: 5.29%
48 | COc1ccc(N2CCN(c3ncnc4onc(-c5ccc(F)cc5)c34)CC2)cc1 | inactive: 3.37%
